The full ranking holds about 33,000 sequences; the median of “E-score (-0.5 to 0.5)” is about -0.016, and the highest 2% start at about 0.31. Some of the results follow.
What follows are sequences tested against Cst6 (UniProt P40535) (assay: PBM E-score (8-mer binding enrichment) (E-score (-0.5 to 0.5)); higher = stronger / more preferred TF binding; most listed sequences are background and not binding sites). Conditions: protein concentration: 200 nM; construct: GST-DNA-binding domain.
Method in brief: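 Yeast transcription factors, full-length or as DNA-binding domains, were expressed with a GST tag using PURExpress in vitro transcription/translation. At about 100-200 nM they were applied to universal all-10-mer Agilent arrays, double-stranded by primer extension on fresh or once-stripped slides. Fluorescent anti-GST detected bound protein, and masliner normalised the scans. E-scores for ungapped eight-base words, pooled with reverse complements, came from the Universal PBM Analysis Suite.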

Sequence | PBM E-score
ATTGACGC | 0.265
ACTTCGAA | 0.164
ACCCCCAC | -0.417
TAAGGGGA | -0.132
ATAACAAT | 0.129
ATCATCGG | -0.00365
GGAAGAGA | -0.106
CCGCCAGC | -0.295
GAACGTCA | 0.442
CGGTATTA | 0.0433
ACAGATGG | -0.112
AGGATGAC | 0.208
ATGGTCGA | -0.154
ACACGTGT | 0.197
GGAGACTA | -0.167
ATTTCATG | 0.00873
GATATGGC | -0.193
CCGGGAGG | -0.318
CGAAATGA | 0.146
CAGAAGGC | -0.0565
CTGTTGGA | -0.104
AGACAGAA | 0.0723
ATTGAGTA | 0.294
GTCTGCAC | -0.266
AGCTTAAG | -0.12

Sequence | PBM E-score
AAAGAGCC | 0.0135
ATGGCCTG | -0.277
CTTTGCTC | -0.0358
TAGCTGAA | -0.0877
TACACTAA | -0.00434
ACATCACG | 0.303
ACCGCCCC | -0.205
ATGAGATG | 0.0721
CCCCGCTC | -0.373
ACGGTCCA | -0.232
CGATCAAC | -0.105
GCTATATA | 0.167
GGGTTTGA | 0.0409
ATTTCGGA | 0.15
GTGTGTCA | 0.248
GGACACGA | -0.176
CATCAGAA | 0.253
GAAACCCC | -0.173
AGGGCTGC | -0.252
CAGTCCTA | -0.19
CAGCGATG | -0.0664
GAGTTGAC | 0.0187
GAGCCAAC | -0.041
ACCGGACT | -0.246
AACTAGGC | -0.0131

Sequence | PBM E-score
CGCTTCCG | -0.171
AGTTCCCG | -0.205
AGCAAGAA | 0.0528
CGATAATC | -0.16
ACGTCACC | 0.496
GTGGGACA | -0.205
CAAGTCCC | -0.288
GACCGTAC | -0.161
CACTGAAA | 0.185
ATGTCCAC | 0.0293
ATCCTATA | 0.124
AGTCGCTA | -0.26
CATAGCCA | 0.025
CTAGGCCC | -0.384
AGCGGGTG | -0.165
GATTACAC | 0.171
GCAAGGGA | -0.235
ACCTTCAC | -0.0918
ATATTATC | 0.262
CCACGGAC | -0.344
CGAGCCAA | 0.00297
AGCGAGCA | -0.169
GTCGCCTA | -0.0534
AGGTATTC | 0.0784
AATACGCA | 0.124

Sequence | PBM E-score
ACGCGGGC | 0.0213
ACACCAGG | -0.21
AAATCAAC | -0.0292
CTCGCTCC | -0.0523
GAAGGCGA | -0.0691
ATCATACC | 0.259
GGCTACCC | -0.232
GGATCCGA | -0.234
GACATGTC | 0.146
ATTATCTA | 0.193
ACCCGGAC | -0.225
AAAAAACA | 0.278
GTTATGCA | -0.141
AAGAAACG | 0.151
TCAGTCGA | 0.0379
CCTGAGAA | 0.0927
CAGAGCGG | -0.117
CCTGCCTA | -0.116
AGTTGTTG | -0.0201
ATATACTA | 0.157
CCCGTGTA | -0.194
ACCTCATC | 0.218
CGGGCTTA | -0.0261
CGGACCCG | -0.233
GCTGCACC | -0.343

Sequence | PBM E-score
CGCATTAC | 0.138
CTACCATC | -0.218
AGAGCTTA | -0.0282
ATCTCATA | 0.0632
CCCGGAAC | -0.302
AACTGTAA | 0.23
GAGGCCGC | -0.169
CGTTCGGC | -0.0488
CGTAACTA | 0.303
AAAAGAGC | -0.0608
AGTATATC | 0.0089
ATGTAGGA | -0.113
ATCGACAT | 0.133
CGGTTTTC | 0.0548
AATACTAT | 0.064
CGCGGGGA | -0.153
ACCCGTAA | 0.00565
CCCTCGAC | -0.166
GTACGTAC | 0.0996
GTCATTCA | 0.289
GCAAAACA | 0.124
ATGACAAG | 0.134
GAGCCTTA | -0.0126
GACTTGGC | -0.3
CGTCGGCC | -0.116

Sequence | PBM E-score
ACTTCTGC | 0.0227
CATGACGC | 0.455
ATTATGGG | -0.12
CAAGACCA | -0.261
ATAGAATA | 0.214
AAGGAGGC | -0.155
GTCTGCTA | 0.0394
CCCCCTCG | -0.4
AGAGATAC | 0.0588
CAGGAGAG | -0.263
AGGGTGTC | -0.205
AGAGCAAA | -0.00698
CCAAGAGG | -0.192
AAGATATA | 0.13
CTGCAACA | -0.0348
CCTGTGTA | -0.0359
ATCTATCA | 0.128
ACACACGC | -0.0309
AACCGTGA | 0.203
ACCTCGCA | -0.0965
AACAGCAA | 0.0149
CGCCAAGC | -0.125
AGTACGCA | -0.237
AAGAGACG | -0.0946
ATGTACCG | 0.0238

Sequence | PBM E-score
AAGGAGTG | -0.137
ACCAATAT | 0.0913
CAGACTAA | 0.0205
CGGCTCTA | 0.127
CTCAGAAA | 0.226
CTTACCCC | -0.204
ACTTGTTG | -0.208
CGCCATAG | -0.025
ATAGCACC | -0.04
AGGTCTTA | -0.145
ATGTAAAG | 0.163
CAGCATAG | 0.0423
CAGAGTCG | -0.209
ACGCAATG | 0.24
CGGCCATA | -0.103
CACGGTGA | 0.139
CTCGGCGC | 0.192
GAGACCTC | -0.102
CAGGTCCA | -0.0856
CTTGCGCC | -0.0634
CACCACTG | -0.0455
ATCGACGA | 0.00463

From the supplement of paper PMC3334620
